Measurements published in PubChem BioAssay AID1671193 (National Center for Advancing Translational Sciences (NCATS), 2021).
Out of some 150,000 compounds screened, about 180 (0.12%) were called active. Inconclusive results, whose numbers are uncertain, are shown with a selection of clear calls. Calls follow the shape of the dose curve; as a rule, active = well fitted cell-killing curve with a large enough effect; inconclusive = small, poorly fitted or top-dose-only effect, or effect the other way; inactive = flat fitted curve, though single readings scatter. Potencies of inconclusive entries are doubtful fits and often do not repeat.

test: GF-AFC viability counterscreen for inhibitors of alpha-synuclein gene (SNCA) expression; conditions: HEK-293-SNCA-luc viability, GF-AFC fluorescence, 24 h; activity change, negative = cytotoxicity: at 57.1 µM (top of the series) unless noted; also: nearly all actives have a fitted effect of over 30% in size;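 as to activity change, negative = cytotoxicity: 0% = DMSO-treated cells and -100% = medium-only wells without cells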
Summary of the method: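 Cytotoxicity counterscreen: after 24 h compound treatment of genome-edited SNCA-luciferase HEK-293 cells, live-cell protease substrate GF-AFC read by fluorescence after 30 min; activity scaled between DMSO (0%) and medium-only (-100%), curves Hill-fitted.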
Potency is read from the fitted curve at half-maximal effect; tags tell the direction and shape of the fitted curve.

| Structure (SMILES) | Potency | activity change, negative = cytotoxicity |
| --- | --- | --- |
| CCOc1ccc(CCNC(=O)CCc2c(C)nc3c4c(C)cc(C)nc4nn3c2C)cc1 | inconclusive: 7.94 µM [rising, partial curve, poor fit] |  |
| COCCn1c(=O)c(-c2ccc(F)cc2)nc2cnc(Nc3cccc(OC)c3)nc21 | inconclusive: 10 µM [rising, partial curve] |  |
| COc1ccccc1C1C=C(c2ccc(F)cc2)Nc2nc(-c3ccc(Cl)cc3)nn21 (stereo not drawn) | inconclusive: 11.2 µM [rising, partial curve] |  |
| O=C([C@@H]1C[C@H](Oc2ccccc2)CN1C(=O)c1n[nH]c2ccccc12)N1CCOCC1 | inconclusive: 5.62 µM [cytotoxic, single point] |  |
| Cc1ccc(C)c(NC(=O)CCN2C(=O)c3ccccc3Sc3ncccc32)c1 | inconclusive: 8.91 µM [cytotoxic, partial curve, poor fit] |  |
| O=C(Cc1ccc(F)cc1)N1CCN(C(=O)c2nc3cccnc3n(C3CCCC3)c2=O)CC1 | inactive |  |
| CCCCCN(CCC(=O)NCc1ccc2c(c1)OCO2)C(=O)c1cc(C)oc1C | inactive |  |
| CC(=O)Nc1cccc(-c2nccc3c(=O)cc(-c4ccncc4)oc23)c1 | inactive |  |
| COc1ccc(CNC(=O)C2CCCN2c2nccc(Nc3ccc(C)cc3)n2)cc1 (stereo not drawn) |  | inactive: -9.2% [at 12.5 µM] |
| COc1ccc(-c2cc(N3CCCC(NC(=O)c4nccc5ccccc45)C3)n[nH]2)cc1 (stereo not drawn) | inactive |  |
| CC(C)c1ccc(CNC(=O)c2cc3n(n2)CC(c2ccc4c(c2)OCO4)OC3)cc1 (stereo not drawn) | inactive |  |
| CNc1ncnc2ccc(-c3cccc(OC)c3)cc12 | inconclusive: 39.8 µM [cytotoxic, single point] |  |
| NCc1ccc(-c2ccc(F)cc2)cc1 | inactive |  |
| CCCC(=O)Nc1cc(C2CC2)nn1-c1ccccc1 | inactive |  |
| Cc1ccc(N2CCC(N[C@@H]3CC[C@@H](N)C3)CC2)cc1Cl | inconclusive: 39.8 µM [cytotoxic, single point] |  |
| COc1ccccc1CNc1cc(-c2ccccc2)nc2nncn12 | inconclusive: 31.6 µM [cytotoxic, single point] |  |
| CNC(=O)CCn1ncc2cc(OC3CCc4cccc(-c5cccc(F)c5)c43)ccc21 (stereo not drawn) | inconclusive: 35.5 µM [cytotoxic, single point] |  |
| O=C(CC1N=C2c3ccccc3N=C(SCC(=O)Nc3cccc(Cl)c3)N2C1=O)NCc1cccs1 (stereo not drawn) | inconclusive: 28.2 µM [cytotoxic, single point] |  |
| CC(=O)N1CCN(c2cc(-c3noc([C@@H]4CCCN4Cc4ccccc4C)n3)ccn2)CC1 | inconclusive: 31.6 µM [cytotoxic, single point] |  |
| Cc1ccc(-c2nnc([C@H]3CCN(C(C)C)C3)o2)cc1 | inactive |  |
| CCc1ccc(NC(=O)Cn2c(=O)c(-c3ccccc3NC(C)=O)nc3ccccc32)cc1 | inconclusive: 15.8 µM [cytotoxic, partial curve, poor fit] |  |
| CC(=O)N[C@@H](Cc1ccc(O)cc1)C(=O)O | inconclusive: 1 µM [rising, full curve, poor fit] |  |

| Structure (SMILES) | Potency | activity change, negative = cytotoxicity |
| --- | --- | --- |
| O=C(NC1CCN(Cc2ccc(-c3ccsc3)cc2)C1)c1ccccc1Cl (stereo not drawn) | inactive |  |
| COc1ccccc1-c1cc(C(=O)NCc2c(C)cc(C)[nH]c2=O)c2c(c1)N(C)CCO2 | inconclusive: 31.6 µM [cytotoxic, single point] |  |
| COc1ccc(Cn2c(C(=O)O)c(CNCc3cccs3)c3ccc(C)cc32)cc1 | inconclusive: 15.8 µM [cytotoxic, partial curve] |  |
| O=C(C1CCCN1C(=O)NC1CCCC1)N1CCC(c2nc3ccncc3[nH]2)CC1 (stereo not drawn) | inactive |  |
| COC(=O)C1=C(C)NC(COC(N)=O)=C(C(=O)OC(C)C)C1c1cccc(Cl)c1Cl (stereo not drawn) | inconclusive: 37.7 µM [rising, partial curve, poor fit] |  |
| CC(C)(C)CN1CCOC[C@H]1c1ncc(-c2ccccc2)[nH]1 | inactive |  |
| O=C(NCc1ccc(F)cc1)c1ccc2nnc(-c3cccc(C(F)(F)F)c3)n2c1 | inconclusive: 39.8 µM [cytotoxic, single point] |  |
| CCc1nc2c(c(-c3ccc(Cl)cc3)n1)CN(Cc1ccccc1)CC2 | inactive |  |
| COc1ccc(Cl)cc1C(=O)N[C@@H]1CN(c2ncccn2)C[C@H]1CN(C)C | inactive |  |
| COc1ccc(-c2cnc(Nc3cccnc3)c3c2CCO3)cn1 | inconclusive: 28.2 µM [cytotoxic, partial curve, poor fit] |  |
| COc1cc(NC(=O)CN(C)S(=O)(=O)c2ccc3[nH]c4c(c3c2)CCCC4)cc(OC)c1OC | inconclusive: 20 µM [cytotoxic, partial curve, poor fit] |  |
| C[C@H](NCc1ccc(OCc2cccc(F)c2)cc1)C(N)=O | inconclusive: 21.5 µM [cytotoxic, partial curve, poor fit] |  |
| CN1c2cc(C(=O)Nc3cccc(Br)c3)ccc2C(=O)N2CCCCC21 (stereo not drawn) | inconclusive: 7.94 µM [rising, single point] |  |
| CC(=O)c1ccc(-c2nc(C3CCOC3)no2)s1 (stereo not drawn) | inactive |  |
| CC(F)(F)CN1CCOc2c(nn(-c3ccccc3Cl)c2-c2ccc(Cl)cc2)C1=O | inconclusive: 5.32 µM [cytotoxic, full curve, poor fit] |  |
| CC(C)NC(=O)COc1cccc(-c2nc(Nc3ccc4[nH]ncc4c3)c3ccccc3n2)c1 | inconclusive: 4.74 µM [cytotoxic, full curve, poor fit] |  |
| c1ccc2cc(-c3nc(C4CCOC4)no3)ncc2c1 (stereo not drawn) | inactive |  |
| Cc1noc2c(-c3cccnc3NC3CCN(C)CC3)cc(-c3ccccc3)nc12 | inactive |  |
| COc1ccccc1NC(=O)c1sc2nc3c(cc2c1N)CN(Cc1ccccc1)CC3 | inconclusive: 1.58 µM [rising, full curve, poor fit] |  |
| CCNC(=O)c1c(NC(=O)c2nc(S(=O)(=O)CC)ncc2Cl)sc2c1CCCC2 | inconclusive: 2.82 µM [cytotoxic, single point] |  |
| Cc1nnnn1CCC(=O)Nc1nn(C)c2cccc(N3CCOCC3)c12 | inconclusive: 2.24 µM [rising, full curve, poor fit] |  |
